The other results are listed elsewhere or left out.
How the values were obtained:
Experiment in all cases: glycan array binding signal (z-score within array); higher = stronger binding
Details in all cases: glycan notation: IUPAC condensed, linker removed
[1] = molecular target: Fuc(a1-3)[Gal3S(b1-4)]Glc
How it was run: (§1)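 Negative Z-scores can be read as non-binding. The Z-score is calculated within each array and then averaged across arrays of one protein sequence at different concentrations or buffers and across linkers. Arrays, 3228 in all, were curated from the Consortium for Functional Glycomics database and kept only where the protein sequence was available.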

[2] = molecular target: Fuc(a1-3)[Gal3S(b1-4)]Glc6S
How it was run: as §1

[3] = molecular target: Fuc(a1-3)[Gal3S(b1-4)]GlcNAc
How it was run: as §1

[4] = molecular target: Fuc(a1-3)[Gal3S(b1-4)]GlcNAc6S
How it was run: as §1

[5] = molecular target: Fuc(a1-3)[GalNAc(b1-4)]Gal(b1-4)GlcNAc
How it was run: as §1

[6] = molecular target: Fuc(a1-3)[GalNAc(b1-4)]GlcNAc
How it was run: as §1

[7] = molecular target: Fuc(a1-3)[GalNAc(b1-4)]GlcNAc6S
How it was run: as §1

Fuc(a1-4)GlcNAc = molecular target: Fuc(a1-4)GlcNAc
How it was run: as §1

Fuc(b1-3)GlcNAc = molecular target: Fuc(b1-3)GlcNAc
How it was run: as §1

Gal(a1-2)Gal = molecular target: Gal(a1-2)Gal
How it was run: as §1

Gal(a1-3)Gal = molecular target: Gal(a1-3)Gal
How it was run: as §1

Gal(a1-3)Gal(b1-3)Glc = molecular target: Gal(a1-3)Gal(b1-3)Glc
How it was run: as §1

Gal(a1-3)Gal(b1-3)GlcNAc = molecular target: Gal(a1-3)Gal(b1-3)GlcNAc
How it was run: as §1

[8] = molecular target: Gal(a1-3)Gal(b1-3)GlcNAc(b1-2)Man
How it was run: as §1

[9] = molecular target: Gal(a1-3)Gal(b1-3)GlcNAc(b1-2)Man(a1-3)[Gal(a1-3)Gal(b1-3)GlcNAc(b1-2)Man(a1-6)]Man(b1-4)GlcNAc(b1-4)GlcNAc
How it was run: as §1

[10] = molecular target: Gal(a1-3)Gal(b1-3)GlcNAc(b1-3)GalNAc
How it was run: as §1

[11] = molecular target: Gal(a1-3)Gal(b1-3)GlcNAc(b1-6)GalNAc
How it was run: as §1

[12] = molecular target: Gal(a1-3)Gal(b1-3)[Fuc(a1-4)]GlcNAc(b1-2)Man(a1-3)[Gal(a1-3)Gal(b1-3)[Fuc(a1-4)]GlcNAc(b1-2)Man(a1-6)]Man(b1-4)GlcNAc(b1-4)GlcNAc
How it was run: as §1

Gal(a1-3)Gal(b1-4)Glc = molecular target: Gal(a1-3)Gal(b1-4)Glc
How it was run: as §1

Gal(a1-3)Gal(b1-4)GlcNAc = molecular target: Gal(a1-3)Gal(b1-4)GlcNAc
How it was run: as §1

[13] = molecular target: Gal(a1-3)Gal(b1-4)GlcNAc(b1-2)Man
How it was run: as §1

[14] = molecular target: Gal(a1-3)Gal(b1-4)GlcNAc(b1-2)Man(a1-3)[Gal(a1-3)Gal(b1-4)GlcNAc(b1-2)Man(a1-6)]Man(b1-4)GlcNAc(b1-4)GlcNAc
How it was run: as §1

[15] = molecular target: Gal(a1-3)Gal(b1-4)GlcNAc(b1-3)GalNAc
How it was run: as §1

[16] = molecular target: Gal(a1-3)Gal(b1-4)GlcNAc(b1-6)GalNAc
How it was run: as §1

[17] = molecular target: Gal(a1-3)Gal(b1-4)[Fuc(a1-3)]GalNAc
How it was run: as §1

[18] = molecular target: Gal(a1-3)Gal(b1-4)[Fuc(a1-3)]GlcNAc
How it was run: as §1

[19] = molecular target: Gal(a1-3)Gal(b1-4)[Fuc(a1-3)]GlcNAc(b1-2)Man(a1-3)[Gal(a1-3)Gal(b1-4)[Fuc(a1-3)]GlcNAc(b1-2)Man(a1-6)]Man(b1-4)GlcNAc(b1-4)GlcNAc
How it was run: as §1

Gal(a1-3)GalNAc = molecular target: Gal(a1-3)GalNAc
How it was run: as §1

Gal(a1-3)GlcNAc = molecular target: Gal(a1-3)GlcNAc
How it was run: as §1

[20] = molecular target: Gal(a1-3)[Gal(a1-4)]Gal(b1-4)GlcNAc
How it was run: as §1

[21] = molecular target: Gal(a1-4)Gal(b1-3)GlcNAc(b1-2)Man(a1-3)[Gal(a1-4)Gal(b1-3)GlcNAc(b1-2)Man(a1-6)]Man(b1-4)GlcNAc(b1-4)GlcNAc
How it was run: as §1

Gal(a1-4)Gal(b1-4)Gal = molecular target: Gal(a1-4)Gal(b1-4)Gal
How it was run: as §1

Gal(a1-4)Gal(b1-4)GalNAc = molecular target: Gal(a1-4)Gal(b1-4)GalNAc
How it was run: as §1

Gal(a1-4)Gal(b1-4)Glc = molecular target: Gal(a1-4)Gal(b1-4)Glc
How it was run: as §1

Gal(a1-4)Gal(b1-4)GlcNAc = molecular target: Gal(a1-4)Gal(b1-4)GlcNAc
How it was run: as §1

[22] = molecular target: Gal(a1-4)Gal(b1-4)GlcNAc(b1-2)Man(a1-3)[Gal(a1-4)Gal(b1-4)GlcNAc(b1-2)Man(a1-6)]Man(b1-4)GlcNAc(b1-4)GlcNAc
How it was run: as §1

[23] = molecular target: Gal(a1-4)Gal(b1-4)GlcNAc(b1-3)Gal(b1-4)Glc
How it was run: as §1

Gal(a1-4)GlcNAc = molecular target: Gal(a1-4)GlcNAc
How it was run: as §1

B1: MGL1 (Mus musculus), P49300 (protein)
chain: MIYENLQNSRIEEKTQEPGKAPSQSFLWRILSWTHLLLFSLGLSLLLLVVVSVIGSQNSQLRRDLGTLRATLDNTTSKIKAEFQSLDSRADSFEKGISSLKVDVEDHRQELQAGRDLSQKVTSLESTVEKREQALKTDLSDLTDHVQQLRKDLKALTCQLANLKNNGSEVACCPLHWTEHEGSCYWFSESEKSWPEADKYCRLENSHLVVVNSLEEQNFLQNRLANVVSWIGLTDQNGPWRWVDGTDFEKGFKNWAPLQPDNWFGHGLGGGEDCAHITTGGPWNDDVCQRTFRWICEMKLAKES
In the case of B1, the “glycan array binding signal (z-score)” value [1] is reported as 0.153, the “glycan array binding signal (z-score)” value [2] is reported as -0.136 and the “glycan array binding signal (z-score)” value [3] is reported as -0.18. The “glycan array binding signal (z-score)” value [4] was 0.056, the “glycan array binding signal (z-score)” value [5] was -0.145 and the “glycan array binding signal (z-score)” value [6] was 1.05. The “glycan array binding signal (z-score)” value [7] was 0.238, the “glycan array binding signal (z-score)” value (Fuc(a1-4)GlcNAc) was 0.064 and the “glycan array binding signal (z-score)” value (Fuc(b1-3)GlcNAc) was 0.3. The “glycan array binding signal (z-score)” value (Gal(a1-2)Gal) was 0.142, the “glycan array binding signal (z-score)” value (Gal(a1-3)Gal) was -0.316 and the “glycan array binding signal (z-score)” value (Gal(a1-3)Gal(b1-3)Glc) was -0.146. For the same binder, the “glycan array binding signal (z-score)” value (Gal(a1-3)Gal(b1-3)GlcNAc) was 0.006, the “glycan array binding signal (z-score)” value [8] was -0.462 and the “glycan array binding signal (z-score)” value [9] was 0.854. The “glycan array binding signal (z-score)” value [10] was 0.472, the “glycan array binding signal (z-score)” value [11] was 0.267 and the “glycan array binding signal (z-score)” value [12] was -0.177. For the same binder, the “glycan array binding signal (z-score)” value (Gal(a1-3)Gal(b1-4)Glc) was -0.545, the “glycan array binding signal (z-score)” value (Gal(a1-3)Gal(b1-4)GlcNAc) was -0.512 and the “glycan array binding signal (z-score)” value [13] was -0.397. The “glycan array binding signal (z-score)” value [14] was 0.941, the “glycan array binding signal (z-score)” value [15] was -0.744 and the “glycan array binding signal (z-score)” value [16] was 0.224. The “glycan array binding signal (z-score)” value [17] was -0.125, the “glycan array binding signal (z-score)” value [18] was -0.823 and the “glycan array binding signal (z-score)” value [19] was -0.363. For the same binder, the “glycan array binding signal (z-score)” value (Gal(a1-3)GalNAc) was -0.127, the “glycan array binding signal (z-score)” value (Gal(a1-3)GlcNAc) was -0.127 and the “glycan array binding signal (z-score)” value [20] was 1.06. For the same binder, the “glycan array binding signal (z-score)” value [21] was 2.41, the “glycan array binding signal (z-score)” value (Gal(a1-4)Gal(b1-4)Gal) was -0.073 and the “glycan array binding signal (z-score)” value (Gal(a1-4)Gal(b1-4)GalNAc) was -0.121. The “glycan array binding signal (z-score)” value (Gal(a1-4)Gal(b1-4)Glc) was 0.134, the “glycan array binding signal (z-score)” value (Gal(a1-4)Gal(b1-4)GlcNAc) was 1.47 and the “glycan array binding signal (z-score)” value [22] was 0.971. The “glycan array binding signal (z-score)” value [23] was -0.091 and the “glycan array binding signal (z-score)” value (Gal(a1-4)GlcNAc) was -0.286.

Reference: the supplement of paper PMC8728848
